{
  "source": "PubChem BioAssay AID504832",
  "about": "(National Center for Advancing Translational Sciences (NCATS), 2011)",
  "note": "“And” between values parts separate entries of the source, which are not always exact repeats. Equal entries are not always repeated. Screen size: about 310,000 compounds; about 18,000 (5.8%) were called active. Inconclusive results, whose numbers are uncertain, are shown with a selection of clear calls. The call rests on the fitted dose curve; in most records, active means well fitted inhibition curve with a large enough effect; inconclusive means small, poorly fitted or top-dose-only effect, or another doubt; inactive means no such curve, though single readings can be large or run the other way. A potency beside an inconclusive call is a rough fit, not a confirmed value. On the % scale 0 is the no-effect control and ±100 the full control effect; potency means the concentration at half of the fitted maximal effect; tags describe the fitted curve by direction and shape.",
  "data": [
    {"test": "Primary qHTS for delayed death inhibitors of the malarial parasite plastid, 48 hour incubation", "details": "P. falciparum luciferase growth in erythrocytes; series mostly up to 28.7 µM; activity change, negative = inhibition: at the top concentration", "in_short": "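Read-out is firefly luciferase luminescence from an integrated reporter in P. falciparum, so falling signal marks reduced parasite growth. Infected erythrocytes were at 2% hematocrit and 0.1% parasitemia (final) in Albumax-supplemented RPMI 1640.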", "values": [
      {"smiles": "COc1ccc(/C=N/Nc2nonc2N)c(OC)c1", "activity change, negative = inhibition": "inactive: 60.1%"},
      {"smiles": "CC(C)(C)C(=O)Nc1scc(-c2ccc(-c3ccccc3)cc2)c1C(=O)O", "Potency": "inconclusive: 2.62 µM [inhibitor, full curve, poor fit]"},
      {"smiles": "Cc1ccccc1C(=O)N1CCC(C(=O)NN2C(=O)NC3(CCCCC3)C2=O)CC1", "Potency": "inconclusive: 11.7 µM [inhibitor, single point]"},
      {"smiles": "NC(=O)NNC1=Nc2cccc3cccc1c23", "activity change, negative = inhibition": "inactive: 11.6%"},
      {"smiles": "CC(=O)Nc1ccc(NC(=O)CSc2nnc(C)n2-c2ccccc2)cc1", "activity change, negative = inhibition": "inactive: -2.44%"},
      {"smiles": "CCCn1c(=O)c(C(=O)N/N=C/c2ccccc2F)c(O)c2ccccc21", "activity change, negative = inhibition": "inactive: 110%"},
      {"smiles": "Cn1cc(Br)c(-c2cccc(N3C(=O)CC(C)(C)CC3=O)c2)n1", "Potency": "inconclusive: 0.465 µM [inhibitor, full curve, poor fit]"},
      {"smiles": "Cc1cc(Nc2ncc(Cl)cc2Cl)n(-c2ccccc2)n1", "Potency": "inconclusive: 14.7 µM [inhibitor, partial curve]"},
      {"smiles": "COC(=O)C1CCN(C(=O)COC(=O)C2CCN(S(=O)(=O)c3ccc(C)c(C)c3)CC2)CC1", "Potency": "inconclusive: 18.5 µM [inhibitor, single point]"},
      {"smiles": "COc1ccc(C(=O)NC2=NCCS2)cc1S(=O)(=O)N1CCCCC1C", "note": "(configuration not stated)", "Potency": "inconclusive: 9.28 µM [inhibitor, single point]"},
      {"smiles": "C/C(=N\\NC(=O)c1cccc(S(=O)(=O)N2CCOCC2)c1)c1cc2ccccc2o1", "activity change, negative = inhibition": "inactive: -15.9%"},
      {"smiles": "O=C(Cn1c(CSc2ccccc2)nc2ccccc21)Nc1ccccc1", "Potency": "inconclusive: 4.65 µM [inhibitor, partial curve]"},
      {"smiles": "COc1ccc(C(=O)c2ccsc2N)cc1", "activity change, negative = inhibition": "inactive: 86.7%"},
      {"smiles": "COc1cccc(NC(=O)C(C)N2C(=O)c3ccccc3C2=O)c1", "note": "(configuration not stated)", "activity change, negative = inhibition": "inactive: 11.4%"},
      {"smiles": "COc1ccc(C2CN(C)CC2C(=O)c2ccc(C)cc2)cc1Cl", "note": "(configuration not stated)", "Potency": "inconclusive: 16.5 µM [inhibitor, single point]"},
      {"smiles": "COc1ccc(NC(=O)Nc2cnccn2)cc1OC", "activity change, negative = inhibition": "inactive: -3.66%"},
      {"smiles": "O=C(C1=COCCO1)N1CCN(c2nc3ccc([N+](=O)[O-])cc3s2)CC1", "Potency": "inconclusive: 13.1 µM [inhibitor, partial curve, poor fit]"},
      {"smiles": "CCC(C)(C)n1nnnc1C(c1ccccc1)N1CCN(Cc2ccccc2)CC1", "note": "(configuration not stated)", "Potency": "inconclusive: 13.1 µM [inhibitor, single point]"},
      {"smiles": "C/C=C/c1ccc(OCCOCCOc2cccc3cccnc23)c(OC)c1", "Potency": "inconclusive: 11.7 µM [inhibitor, partial curve, poor fit]"},
      {"smiles": "COc1cccc(-c2cn(-c3cccc(C(F)(F)F)c3)c(=S)[nH]2)c1", "Potency": "active: 10.4 µM"},
      {"smiles": "O=C(CC1SC(=NCCc2ccccc2)N(/N=C/c2cccs2)C1=O)Nc1ccc(Cl)cc1", "note": "(configuration not stated)", "Potency": "inconclusive: 11.7 µM [inhibitor, single point]"},
      {"smiles": "COc1cccc(C(=O)CN2C(=O)C(C)(C)Oc3ccc(C(=O)N4CCOCC4)cc32)c1", "activity change, negative = inhibition": "inactive: -14.2%"},
      {"smiles": "NC(=O)Nc1ccc(C(=O)OCC(=O)N2CCc3ccccc3C2)cc1", "activity change, negative = inhibition": "inactive: -29.4%"},
      {"smiles": "CCN(c1ccccc1)S(=O)(=O)c1ccc(OC)c(NC(=O)CN2C(=O)NC(C)(C)C2=O)c1", "activity change, negative = inhibition": "inactive: -13.1%"},
      {"smiles": "Cc1nc(SCC(=O)Nc2cccc(C(=O)O)c2)n[nH]1", "activity change, negative = inhibition": "inactive: 36%"},
      {"smiles": "O=C(NCCn1c(C(F)(F)F)nc2cc(C(F)(F)F)ccc21)[C@H]1CCCN1c1nc(CN2CCCCC2)cs1", "Potency": "inconclusive: 0.233 µM [inhibitor, full curve, poor fit]"},
      {"smiles": "CCCCn1c(=O)c2c(O)cc(=O)oc2c2ccccc21", "activity change, negative = inhibition": "inactive: 41.9%"},
      {"smiles": "COc1ccc(C(O)P(=O)(OCCC(C)C)c2ccc(N(C)C)cc2)cc1", "note": "(configuration not stated)", "Potency": "inconclusive: 5.22 µM [inhibitor, partial curve]"},
      {"smiles": "COc1cccc(-c2nc(CS(=O)(=O)CC(=O)Nc3cc(OC)ccc3OC)c(C)o2)c1", "activity change, negative = inhibition": "inactive: -20.6%"},
      {"smiles": "C=CCOC(=O)C1=C[C@@H](c2ccc(Br)cc2)[C@H](CCCO)[C@@H](OCC)O1", "Potency": "inconclusive: 16.5 µM [inhibitor, single point]"},
      {"smiles": "O=C(NC(C(=O)N/N=C/c1ccccc1)c1n[nH]c(=O)c2ccccc12)c1ccccc1", "note": "(configuration not stated)", "Potency": "inconclusive: 9.28 µM [inhibitor, single point]"},
      {"smiles": "CCCCc1ccc(NC(=O)CSc2nc(=O)n(CCN(CC)CC)c3c2CCC3)cc1", "Potency": "inconclusive: 3.29 µM [inhibitor, partial curve]"},
      {"smiles": "CC1CCCC(C)N1C(=O)CN1C(=O)c2ccccc2S1(=O)=O", "note": "(configuration not stated)", "activity change, negative = inhibition": "inactive: -2.78%"},
      {"smiles": "COCCCNC(=O)Cn1nnc(-c2ccc(NC(=O)c3ccccc3OC)cc2)n1", "Potency": "inconclusive: 9.28 µM [inhibitor, partial curve]"},
      {"smiles": "CN(C)c1nc(SCc2ccccc2Cl)nc2c1CCCC2", "Potency": "inconclusive: 18.5 µM [inhibitor, single point]"},
      {"smiles": "CC(C)(C)c1ccc(-n2ncc3c2CCCC3NC(=O)CCN2CCCO2)cc1", "note": "(configuration not stated)", "activity change, negative = inhibition": "inactive: -24.5%"},
      {"smiles": "CCN1CCN(Cc2c3ccccc3cc3ccccc23)CC1", "Potency": "inconclusive: 11.7 µM [inhibitor, single point]"},
      {"smiles": "COc1ccccc1-c1ccc(/C=N/O)o1", "activity change, negative = inhibition": "inactive: 26.9%"},
      {"smiles": "COc1cccc(C=Nc2cccnc2)c1O", "activity change, negative = inhibition": "inactive: 3.92%"},
      {"smiles": "CSc1nnc([C@@H](N)Cc2ccccc2)o1", "activity change, negative = inhibition": "inactive: -2.31%"},
      {"smiles": "O=C(c1ccc2nc(N3CCOCC3)sc2c1)N1CCN(c2ccc(Cl)cc2)CC1", "activity change, negative = inhibition": "inactive: 9.24%"},
      {"smiles": "Cc1ccc(C(=O)COC(=O)CN2C(=O)C3C4CC(C(Br)C4Br)C3C2=O)cc1", "note": "(configuration not stated)", "activity change, negative = inhibition": "inactive: 10.2%"},
      {"smiles": "CNCCCC1Sc2ccccc2Oc2ccccc21", "note": "(configuration not stated)", "Potency": "inconclusive: 18.5 µM [inhibitor, single point]"},
      {"smiles": "O=c1cc(-c2ccccc2Cl)oc2c(NS(=O)(=O)c3ccccc3OC(F)(F)F)ccc(O)c12", "Potency": "inconclusive: 9.28 µM [inhibitor, partial curve]"},
      {"smiles": "COc1ccc(N(CCC#N)C(=O)/C(C#N)=C/c2cccs2)cc1", "Potency": "inconclusive: 11.7 µM [inhibitor, single point]"},
      {"smiles": "O=C1C2C3C=CC(CC3)C2C(=O)N1c1ccc(Cl)cc1", "note": "(configuration not stated)", "Potency": "inconclusive: 13.1 µM [inhibitor, single point]"},
      {"smiles": "COc1ccccc1OCCNC(=O)C1CC(=O)N(c2cccc(SC)c2)C1", "note": "(configuration not stated)", "activity change, negative = inhibition": "inactive: -8.97%"},
      {"smiles": "CCN(CC)c1ccc(C2CC(=O)Nc3cc(OC)c(OC)cc32)cc1", "note": "(configuration not stated)", "Potency": "inconclusive: 18.5 µM [inhibitor, single point]"},
      {"smiles": "O=c1c2ccccc2nc(-c2ccco2)n1-c1ccc(Br)cc1", "Potency": "inconclusive: 18.5 µM [inhibitor, single point]"},
      {"smiles": "CCOC(=O)C1(Cc2ccc(Cl)cc2)CCN(C(=O)CCc2ccncc2)CC1", "Potency": "inconclusive: 9.28 µM [inhibitor, partial curve]"},
      {"smiles": "COc1ccc(-c2cc([C@H]3[C@H]4C=CC[C@@H](C)[C@@H]4C(=O)N3Cc3ccccc3)ccc2F)cc1OC", "Potency": "inconclusive: 2.62 µM [inhibitor, partial curve, poor fit]"},
      {"smiles": "COC(=O)C1=C(c2ccc(F)cc2OCc2ccccc2)C[C@@H]2CC[C@H]1N2C(=O)NC1Cc2ccccc2C1", "Potency": "inconclusive: 5.22 µM [inhibitor, partial curve, poor fit]"},
      {"smiles": "COc1cccc(NC(=O)CN(C)C(=O)c2cn(-c3ccccc3)nc2-c2cccnc2)c1", "Potency": "active: 11.7 µM"},
      {"smiles": "O=C(C1CCCCC1)N1CCCC(c2nc(-c3ccc(F)cc3)no2)C1", "note": "(configuration not stated)", "activity change, negative = inhibition": "inactive: 17.1%"},
      {"smiles": "FC(F)(F)c1cccc(-n2cccc2/C=N/n2cnnc2)c1", "Potency": "inconclusive: 11.7 µM [inhibitor, single point]"},
      {"smiles": "CCNC(=S)N1CCN(c2cccc(C(F)(F)F)c2)CC1", "activity change, negative = inhibition": "inactive: 17.4%"},
      {"smiles": "CCC(=NCCc1c(C)[nH]c2ccccc12)C1=C(O)CC(c2ccccc2)CC1=O", "note": "(configuration not stated)", "Potency": "inconclusive: 13.1 µM [inhibitor, partial curve, poor fit]"},
      {"smiles": "c1ccc2[nH]c(CN3CCN(c4ncnc5c4oc4ccccc45)CC3)nc2c1", "Potency": "inconclusive: 9.28 µM [inhibitor, partial curve]"},
      {"smiles": "COc1cc(C(=O)O)cc(Br)c1OC1CCCC1", "Potency": "inconclusive: 9.28 µM [inhibitor, partial curve, poor fit]"},
      {"smiles": "O=C(CC(Cc1ccccc1)C(=O)O)Nc1cccc(C(F)(F)F)c1", "note": "(configuration not stated)", "activity change, negative = inhibition": "inactive: -21.6%"},
      {"smiles": "O=S(=O)(c1ccc(N2CCN(Cc3ccc4c(c3)OCO4)CC2)nc1)N1CCOCC1", "activity change, negative = inhibition": "inactive: 14.9%"},
      {"smiles": "COc1cc(OC)cc(-c2cc3nc4c(c(N5CCN(c6ncccn6)CC5)n3n2)CCCC4)c1", "Potency": "active: 1.31 µM"},
      {"smiles": "CC(=O)Nc1ccc(N2C(C(C)=O)=NN(c3ccccc3)C2c2cccs2)cc1", "note": "(configuration not stated)", "Potency": "inconclusive: 16.5 µM [inhibitor, single point]"},
      {"smiles": "CSCCC(NS(=O)(=O)c1ccc(C)cc1)C(=O)N1CC=C(c2ccccc2)CC1", "note": "(configuration not stated)", "Potency": "inconclusive: 0.928 µM [inhibitor, full curve, poor fit]"},
      {"smiles": "Cc1cc(CNCc2cn(C)nc2-c2ccc(Oc3ccccc3)cc2)on1", "Potency": "inconclusive: 11.7 µM [inhibitor, single point]"},
      {"smiles": "Cc1ccc(OCc2nnc(N)s2)cc1C", "activity change, negative = inhibition": "inactive: 44.7%"},
      {"smiles": "O=C1C2C3c4ccccc4C(c4ccccc43)C2C(=O)N1c1nc(-c2ccccc2)cs1", "note": "(configuration not stated)", "activity change, negative = inhibition": "inactive: -4.92%"},
      {"smiles": "NC(=O)CSc1nnc(NC(=O)c2cccc(S(=O)(=O)N3CCCCC3)c2)s1", "activity change, negative = inhibition": "inactive: 18.5%"},
      {"smiles": "Cc1ccc(S(=O)(=O)N(CC(=O)N2CCC(C)CC2)c2ccccc2)cc1", "Potency": "active: 11.7 µM"},
      {"smiles": "O=C(c1cccnc1)C1Cc2ccccc2C1=O", "note": "(configuration not stated)", "Potency": "inconclusive: 20.8 µM [inhibitor, partial curve, poor fit]"},
      {"smiles": "C/C(=N\\NC(=O)C(O)c1ccccc1)c1ccc(Cl)s1", "note": "(configuration not stated)", "Potency": "inconclusive: 16.5 µM [inhibitor, partial curve, poor fit]"},
      {"smiles": "COc1cccc(-c2nc(N3CCN(Cc4ccccc4)CC3)c3ccccc3n2)c1O", "Potency": "inconclusive: 11.7 µM [inhibitor, single point] and inconclusive: 4.15 µM [inhibitor, full curve, poor fit]"}
    ]}
  ]
}
